Reference: PubChem BioAssay (NCATS)
The shares of active, inactive and inconclusive entries below differ from those in the screen. For some assays here: Potencies beside an inconclusive call are fits to weak or partial responses and may not hold up. For some assays here: “Side channel” marks fits to a control or component signal instead of the main read-out. Activity calls are given as the source filed them. Unless noted, calls follow the shape of the dose curve; as a rule, active = well fitted curve in the direction sought with a large enough effect; inconclusive = small, poorly fitted or top-dose-only effect, or another doubt; inactive = no such curve, though single readings can be large; an effect the other way counts as inactive or inconclusive.

What was measured:
[1] = qHTS to identify inhibitors of the type 1 interferon - major histocompatibility complex class I in skeletal muscle: primary screen against the NCATS Pharmaceutical Collection (AID 1347407); conditions: human skeletal muscle cells, IFN-b-induced MHC-I HiBiT luminescence, 24 h; activity change, negative = inhibition: at 45.9 µM (top of the series);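 also: luminescence of HiBiT knocked into endogenous HLA-B as interferon-induced MHC class I level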
Outline: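 HLA-B HiBiT myoblasts, dexamethasone-free growth medium + 4 ng/ml IFN-b; compounds pinned 1 h after seeding, […] from 46 uM; 24 h, 37 C, 5% CO2; lytic HiBiT detection, 10 min RT, luminescence.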

[2] = Quantitative High-Throughput drug screen in 47 multiple myeloma cell lines against the NCATS MIPE library collection: ARD_JJKsccE7 cell viability assay (AID 1918929); conditions: ARD myeloma cell line viability, CellTiter-Glo, 48 h; viability: at 45.8 µM (top of the series)
Outline: (§1)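 Relative luminescence from CellTiter-Glo served as the viability signal, referenced to DMSO-treated (100%) and cell-free medium (0%) controls. Treatment lasted 48 hours at 37C with 500 cells per well.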

[3] = Quantitative High-Throughput drug screen in 47 multiple myeloma cell lines against the NCATS MIPE library collection: H1112_PLB cell viability assay (AID 1918967; also: nearly all actives have a fitted effect of over 30% in size)
Outline: as §1

[4] = Quantitative High-Throughput drug screen in 47 multiple myeloma cell lines against the NCATS MIPE library collection: KMS27_JCRB cell viability assay (AID 1918970); conditions: KMS27 myeloma cells, CellTiter-Glo ATP viability, 48 h; viability (% of DMSO): at 45.8 µM (top of the series); also: nearly all actives have a fitted effect of over 30% in size
Outline: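 CellTiter-Glo luminescence after 48 h drug exposure at 37 °C; 500 cells/well, 1536-well format, pin-tool compound addition; DMSO = 100%, media-only = 0% viability.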

[5] = Quantitative High-Throughput drug screen in 47 multiple myeloma cell lines against the NCATS MIPE library collection: VP6_DJ cell viability assay (AID 1919867); also: nearly all actives have a fitted effect of over 40% in size
Outline: (§2)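 ATP-based CellTiter-Glo luminescence after 48 h drug exposure (37 °C, 5% CO2) of 500 myeloma cells per well. DMSO-only wells set 100% viability, media-only wells 0%; MIPE 4.0 library added by pin tool.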

[6] = Quantitative High-Throughput drug screen in 47 multiple myeloma cell lines against the NCATS MIPE library collection: PCM6_Riken cell viability assay (AID 1919870); also: nearly all actives have a fitted effect of over 30% in size
Outline: as §2

[7] = target: Peroxisome proliferator-activated receptor gamma (Homo sapiens) (UniProt P37231); assay: qHTS assay for small molecule antagonists of peroxisome proliferator-activated receptor gamma signaling (AID 588537; active = well fitted inhibition curve with a large enough effect in the signal ratio, with a control signal flat, not every such curve was filed as active; inconclusive = small, poorly fitted or top-dose-only effect, or effect the other way, or a change in a side signal; the % refers to the signal ratio;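 also: reporter cells co-stimulated with 50 nM rosiglitazone agonist during compound treatment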; as to activity, negative = inhibition: % of control where 0% means no effect); conditions: HEK293 PPARg-UAS-bla, beta-lactamase ratio, antagonist mode
Outline: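 Antagonist-mode β-lactamase reporter screen run as a titration series. HEK293 PPARγ-UAS-bla cells are stimulated with rosiglitazone (50 nM final) for 16 h, then CCF4 is read at 460/530 nm. Data are scaled between DMSO and rosiglitazone and fitted to the Hill equation.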

[8] = qHTS assay for small molecule agonists of the antioxidant response element (ARE) signaling pathway (AID 651741; active = well fitted activation curve with a large enough effect in the signal ratio; inconclusive = small, poorly fitted or top-dose-only effect, or effect the other way, or a change in a side signal; the % refers to the signal ratio; as to activation: % of control where 0% means no effect); conditions: HepG2 ARE-bla reporter, beta-lactamase FRET ratio, 16 h; activation: at 96 µM (top of the series)
Outline: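 Beta-lactamase reporter under ARE control in HepG2 cells, 2,000 per well, was induced by 16 h compound treatment at 37 C. Read-out was fluorescence from LiveBLAzer B/G FRET substrate after 2 h at room temperature.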

[9] = Quantitative High-Throughput drug screen in 47 multiple myeloma cell lines against the NCATS MIPE library collection: JJN3_DSMZ cell viability assay (AID 1918966; also: nearly all actives have a fitted effect of over 50% in size)
Outline: as §1

[10] = qHTS of pediatric cancer cell lines to identify multiple opportunities for drug repurposing: Confirmatory screen for SK-N-MC cells (AID 1347111);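 also: cells exposed to compound for 48 h before the readout; nearly all actives have a fitted effect of over 70% in size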
Outline: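 Seed 500-1,000 cells/well; rest 5 h at 37 degrees C. Pin-transfer compounds, 11-point titration. Incubate 48 h. Add CellTiter-Glo, 15 min RT, read luminescence.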

[11] = Quantitative High-Throughput drug screen in 47 multiple myeloma cell lines against the NCATS MIPE library collection: INA6_PLB cell viability assay (AID 1918965; also: nearly all actives have a fitted effect of over 55% in size); conditions: INA6 myeloma viability, CellTiter-Glo ATP luminescence, 48 h; viability (% of control): at 45.8 µM (top of the series)
Outline: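 CellTiter-Glo ATP luminescence gave viability after 48 h compound treatment at 37C of 500 multiple myeloma cells per well. Normalisation used DMSO-only wells as 100% and media-only wells as 0% viability; primary qHTS of approved and investigational drugs.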

[12] = Quantitative High-Throughput drug screen in 47 multiple myeloma cell lines against the NCATS MIPE library collection: MM1S_ATCC cell viability assay (AID 1918980); also: nearly all actives have a fitted effect of over 45% in size
Outline: as §2

[13] = Quantitative High-Throughput drug screen in 47 multiple myeloma cell lines against the NCATS MIPE library collection: Delta47_JCRB cell viability assay (AID 1918925; also: nearly all actives have a fitted effect of over 45% in size); conditions: Delta47 myeloma viability, CellTiter-Glo ATP, 48 h; viability (% of DMSO): at 45.8 µM (top of the series)
Outline: as §1

[14] = S16 Schwann cell viability assay (CellTiter-Glo assay) (AID 624031);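 also: native untransfected S16 rat Schwann cells; cellular ATP luminescence as a viability measure; nearly all actives have a fitted effect of over 70% in size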
Outline: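 Following overnight culture in 10% FBS DMEM, parental S16 rat Schwann cells are dosed for 24 h at 37 °C. Viability is read as CellTiter-Glo luminescence and expressed as % activity relative to DMSO (0%) and no-cell wells.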

[15] = S16 Schwann cell PMP22 intronic element firefly luciferase assay (AID 624032); also: nearly all actives have a fitted effect of over 30% in size
Outline: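 Luciferase reporter of PMP22 intronic-element expression in stably transfected S16 rat Schwann cells, read by ONE-Glo luminescence after 24 h compound exposure at 37 C. Activity scaled between DMSO (0%) and positive-control PTC124; concentration-effect curves quality-classified.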

TAB113 = assay: qHTS profiling for inhibitors of Plasmodium falciparum proliferation (AID 504749); also: nearly all actives have a fitted effect of over 60% in size;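 as to activity, negative = inhibition: 0% = DMSO vehicle and full inhibition = artemisinin control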; conditions: P. falciparum in erythrocytes, SYBR Green DNA, 72 h; series mostly up to 28.7 µM
Outline: (§3)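 SYBR Green fluorescence of parasite DNA, read after lysis and overnight dark incubation, measured growth over 72 h in erythrocyte culture at 0.3% parasitemia and 2.5% hematocrit. Data normalised to DMSO and 0.29 uM artemisinin, with plate-drift correction.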

[16] = qHTS of pediatric cancer cell lines to identify multiple opportunities for drug repurposing: Confirmatory screen for NB1643 cells (AID 1347109); also: nearly all actives have a fitted effect of over 45% in size
Outline: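 Cells (500-1,000/well) rested 5 h, then received compounds for 48 h; metabolically active cells were measured by CellTiter-Glo luminescence. Final concentrations spanned up to 46 µM (MIPE, 11-point) or 0.59 nM-46 µM (NPC, 8-point) in primary screens, 11-point in follow-ups.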

PC15 = assay: qHTS profiling for inhibitors of Plasmodium falciparum proliferation (AID 504749); also: nearly all actives have a fitted effect of over 60% in size;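 as to activity, negative = inhibition: 0% = DMSO vehicle and full inhibition = artemisinin control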; conditions: P. falciparum in erythrocytes, SYBR Green DNA, 72 h; series mostly up to 28.7 µM
Outline: as §3

CP260 = assay: as above; conditions: P. falciparum in erythrocytes, SYBR Green DNA, 72 h; series mostly up to 28.7 µM
Outline: as §3

CP291 = assay: as above; conditions: P. falciparum in erythrocytes, SYBR Green DNA, 72 h; activity, negative = inhibition: at 28.7 µM (top of the series)
Outline: as §3

[17] = activity, negative = inhibition: at 76.8 µM (top of the series)
Potency is read from the fitted curve at half-maximal effect; tags tell the direction and shape of the fitted curve or compound fluorescence and quenching.

O=C(Nc1ccc(Cl)cc1)Nc1ccc(Cl)c(C(F)(F)F)c1
Potency [1]: inconclusive: 26.4 µM [inhibitor, partial curve, poor fit]

COC(=O)Nc1ccc(-c2nc(N3CCOCC3)c3cnn(C4CCN(Cc5cccnc5)CC4)c3n2)cc1
Potency [2]: inconclusive: 0.209 µM [rising, full curve, poor fit]
Potency [3]: active: 26.4 µM
Potency [4]: inactive
Potency [5]: active: 0.0469 µM
Potency [6]: active: 0.526 µM

CC(C=CC1=C(C)CCCC1(C)C)=CC=CC(C)=CC(=O)Nc1ccc(O)cc1
Potency [7, 17]: inconclusive: 44.7 µM [inhibitor, partial curve, poor fit]
Potency [8]: inconclusive: 21.7 µM [cytotoxic, side channel, partial curve, poor fit]
Potency [9]: active: 21.5 µM
Potency [3]: active: 19.1 µM
Potency [4]: active: 8.55 µM
Potency [6]: active: 13.6 µM

C=CC(=O)Nc1cccc(Oc2nc(Nc3ccc(N4CCN(C)CC4)cc3)ncc2Cl)c1
Potency [10]: active: 1.31 µM
Potency [2]: active: 16.6 µM
Potency [9]: active: 18.7 µM
Potency [4]: active: 4.69 µM
Potency [6]: active: 16.6 µM

O=C(c1ccc(F)cc1)N1CCC[C@H](c2nc(-c3ccc(F)cc3)no2)C1
Potency [11]: inactive
Potency [9]: inactive
Potency [3]: inactive
Potency [12]: inconclusive: 33.2 µM [cytotoxic, single point]
Potency [5]: inactive

CNC(=O)c1ccc(Nc2cc(Nc3ccccc3S(=O)(=O)C(C)C)c3cc[nH]c3n2)nc1
Potency [13]: active: 0.662 µM
Potency [11]: active: 0.469 µM

Nc1ncnc2c1c(-c1cnc3[nH]ccc3c1)nn2C1CCCC1
Potency [12]: active: 2.96 µM

C#C[C@]1(O)CC[C@H]2[C@@H]3CCc4cc(OC5CCCC5)ccc4[C@H]3CC[C@@]21C
Potency [14]: active: 32.2 µM
Potency [15]: inconclusive: 20.3 µM [inhibitor, partial curve, poor fit]
Potency (TAB113): inconclusive: 10 µM [inhibitor, single point]

O=c1[nH]sc2cc(Cl)ccc12
Potency [1]: inconclusive: 29.7 µM [inhibitor, single point]

NC(CO)(CO)CO
Potency [16]: inactive
Potency (PC15): inactive

COc1cc2c(NC3CCN(C(C)C)CC3)nc(C3CCCCC3)nc2cc1OCCCN1CCCC1
Potency [16]: active: 23.3 µM
Potency [2]: inconclusive: 37.2 µM [cytotoxic, single point]

CCCCc1ncc(/C=C(\Cc2cccs2)C(=O)O)n1Cc1ccc(C(=O)O)cc1
Potency (CP260): inactive
Potency (CP291): inactive

O=C(Nc1ccc([N+](=O)[O-])cc1)Nc1ccc([N+](=O)[O-])cc1
Potency [14]: inactive
Potency [15]: inconclusive: 36.1 µM [inhibitor, single point]
Potency (CP291): inactive

COc1ccc(C(=O)c2ccccc2)c(O)c1
activity, negative = inhibition [7, 17]: inconclusive: 1.06%
activity, negative = inhibition ([7]; at 76.8 µM (top of the series)): inactive: 0.693%
Potency [8]: inconclusive: 75 µM [activator, partial curve, poor fit]
activation [8]: inconclusive: 15.2%
Potency [16]: inactive
Potency [10]: inactive
Potency (CP260): inconclusive: 17.8 µM [inhibitor, single point]
Potency (PC15): inconclusive: 11.2 µM [inhibitor, single point]
Potency (TAB113): inconclusive: 17.8 µM [inhibitor, single point]
